Experimental findings from PubChem BioAssay (NCATS) are described below.

One may read the AC50 as the midpoint of the concentration-response curve, whichever way the signal moves.

This is one part of the list. Further columns of the screen follow, without active or inactive calls. Words in brackets tell the shape of the fitted curve; partial curves, single points and poor fits give uncertain potencies.
Tags describe the fitted curve by direction and shape.

The assay can be described thus: qHTS drug screen for cell cycle checkpoint inhibitors in PARPi-resistant BRCA-mutant ovarian cancer cell lines. (AID 1963452). The following applies: PEO1/OlaR viability, CellTiter-Glo luminescence, 96 h; measured here: PEO1 parental viability. The method, boiled down: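 PEO1, PEO4 and PEO1/OlaR ovarian cancer cells, 600 per well, exposed 96 h at 37C to a dilution series. Viability read by CellTiter-Glo luminescence, normalized to DMSO and empty wells; activity summarized as Z-AUC.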
In general terms: Quantitative high-throughput screening tests each substance at several concentrations.
For the molecule `CCCCNc1ncc(-c2ccc(CN3CCOCC3)cn2)c(NC2CCC(O)CC2)n1` (stereo unspecified), the AC50 is 9.52 µM [falling, partial curve, poor fit].

On to `C[C@]12CCCN1CC1=NNC(=O)c3cc(F)cc4[nH]c2c1c34`, for which the AC50 was 1.95 µM [falling, partial curve].

Regarding `C=CCNC1=C2CC(C)CC(OC)C(O)C(C)/C=C(\C)C(OC(N)=O)C(OC)/C=C/C=C(\C)C(=O)NC(=CC1=O)C2=O` (stereo unspecified), the AC50 is 0.155 µM [falling, full curve]. With `Cc1ccc(-c2nc(N)nc3c2nnn3Cc2cccc(CO[C@H]3CCOC3)n2)o1` the figure was 27.5 µM [rising, partial curve, poor fit]; with `Cc1cc(Oc2ccc3nc(COc4ccc(CC5SC(=O)NC5=O)cc4)n(C)c3c2)cc(C)c1N` (stereo unspecified), 27.5 µM [falling, single point]; with `O=C(NCC(=O)N1CCCC1)Nc1ccc2cnccc2c1`, 9.77 µM [rising, partial curve, poor fit]. As for `CC(O)c1cc(C(=O)N[C@@H](C)Cn2ccc(-c3ccc(C#N)c(Cl)c3)n2)n[nH]1` (stereo partly specified), the AC50 is 11 µM [falling, partial curve]. With `CCCNC(=O)Nc1ccc(Oc2ncnc3cc(OC)c(OC)cc23)cc1Cl` the figure was 0.195 µM [rising, full curve, poor fit]. As for `CNC(=O)c1cc(Oc2ccc3nc(N[C@@H]4CCCC[C@H]4O)sc3c2)ccn1`, the figure is 21.9 µM [falling, partial curve, poor fit]; as for `O=C(CCNC(=O)c1ccc(OC(F)(F)F)cc1)N[C@@H]1CCCc2ccccc21`, 0.692 µM [falling, full curve, poor fit].

In the case of `CC1(N)CCN(c2cccnc2NC(=O)c2nc(-c3ncccc3C(F)(F)F)cnc2N)CC1`, the AC50 was 4.9 µM [falling, partial curve]. With `CC(C)c1noc(N2CCC(COc3ccc(-c4ccc(S(C)(=O)=O)cc4)nc3)CC2)n1` the figure was 2.19 µM [falling, full curve]; with `CCCCC[C@H](O)C=C[C@H]1[C@H](O)CC(=O)[C@H]1CC=CCCCC(=O)O`, 17.4 µM [falling, single point]; with `Cn1nccc1Nc1nccc(-c2cc3c(s2)C(C)(C)N(CCN2CCOCC2)C3=O)n1`, 0.347 µM [falling, full curve]. As to `Cc1cc(F)c(C(=O)Nc2cccc(-c3nncn3C(C)C)n2)cc1-n1cnc(C2CC2)c1`, the AC50 was 8.71 µM [falling, partial curve, poor fit]. Regarding `CCCCC[C@H](O)/C=C/[C@H]1[C@H](O)CC(=O)[C@@H]1CCCCCCC(=O)O`, the half-maximal activity concentration (AC50) was 0.692 µM [falling, partial curve, poor fit].

For the molecule `Cc1nc(C)c(CN2CCN(C(c3ccc(F)cc3)c3ccc(F)cc3)CC2)nc1C`, the AC50 was 24.5 µM [falling, single point].

On to `CN(Cc1ccccc1)C(=O)c1ccc(S(=O)(=O)Nc2ccccc2)cc1`, for which the AC50 is 0.138 µM [falling, full curve]. With `Cc1ccccc1C(=O)Nc1ccc(C(=O)N2CCCC(O)c3cc(Cl)ccc32)c(C)c1` (stereo unspecified) the figure was 0.0138 µM [rising, full curve, poor fit]; with `Cc1cccc(CC(=O)N2CCc3c2ccc(-c2cn(C)c4ncnc(N)c24)c3F)n1`, 8.71 µM [falling, partial curve]; with `CNC(=O)[C@@H](NC(=O)[C@H](CC(C)C)[C@H](O)C(=O)NO)C(C)(C)C`, 13.8 µM [falling, partial curve, poor fit].
